Laboratory results taken from the RNAGym collection of RNA variant scans (doi:10.1093/nar/gkz1192).
The source gives no read counts; variants with many changes may rest on few reads.

B1: CPEB3 Ribozyme (parent)
chain: UAACAGGGGGCCACAGCAGAAGCGUUCACGUCGCAGCCCCUGUCAGAUUCUGGUGAAUCUGCGAAUUCUGCUGUAUAUCUC

Variants of: B1
Experiment: self-cleavage, relative activity (ratio to wild type); higher = more cleavage; in vitro, sequencing
Procedure, shortened: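 Barcoded CPEB3 ribozyme mutants, produced by rounds of error-prone PCR, self-cleaved while being transcribed with T7 RNA polymerase for 5 hours at 37°C and during a subsequent 15 min DNase I step before EDTA was added. Sequencing of template-switched cDNA on Illumina gave cleaved and total reads, and DNA sequencing assigned barcodes to variants. Each variant's relative activity is its cleaved/total read fraction divided by the unmutated ribozyme's fraction, averaged across three batches. A variant needed a minimum of 5 reads.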
In the case of A20G U26C U41G U43C U69A U72A U80C, the self-cleavage is reported as 0.16.
Variant A20U A28G A35U U48C C50U has a self-cleavage of 0.15.
Variant A20G U25G A35G has a self-cleavage of 0.57.
With A20U A21G U72C the self-cleavage was 0.45.
Work on A20G U25C U41A U60A yielded a self-cleavage of 0.07.
For A20U A28G A35G U48C A56U, the self-cleavage was 0.04.
A20U A21U A28G U31A U41A U43A A65G showed a self-cleavage of 0.1.
With A20U A28G A35G U54A the self-cleavage was 0.75.
In the case of A20G U26A C34U A47G A65G, the self-cleavage is reported as 0.09.
Variant A20G U48C U54C has a self-cleavage of 0.25.
Work on A20G U54A U74C U76C yielded a self-cleavage of 0.98.
With A20G U48C U54A U66C U74C U78C the self-cleavage was 0.15.
In the case of A20U A28G A57G, the self-cleavage is reported as 0.31.
A20G U25C A35U U51C U60A A77G showed a self-cleavage of 0.17.
Variant A20G U25C G30A A45G has a self-cleavage of 0.08.
A20G U72C A75U showed a self-cleavage of 1.02.
A20G U25C A45G showed a self-cleavage of 0.47.
Work on A20G U26C U69C U74A yielded a self-cleavage of 0.24.
With A20G U31C U43C U78C the self-cleavage was 0.37.
A20G U31A U54C showed a self-cleavage of 0.29.
Variant A20G U26C G52A has a self-cleavage of 0.22.
A20G U26C U43A gave a self-cleavage of 0.33.
Variant A20G U26C U49C U60C G63A A65G has a self-cleavage of 0.04.
With A20G U51A A56G the self-cleavage was 0.2.
For A20G U41C U74A, the self-cleavage was 0.91.
Variant A20G U31A G53U U76C U80C has a self-cleavage of 0.53.
Work on A20U A21G A28G yielded a self-cleavage of 0.05.
For A20G U49C U51C U60C G70A U72C, the self-cleavage was 0.19.
A20G U51C G63A G70U A77U U80C showed a self-cleavage of 0.21.
In the case of A20G U48C G55U U60A, the self-cleavage is reported as 0.21.
In the case of A20G U41A U51C A57G C62A, the self-cleavage is reported as 0.17.
Variant A20G U31C A35G G42A A56U has a self-cleavage of 0.08.
In the case of A20G U25C U54A A56G, the self-cleavage is reported as 0.16.
Work on A20G U26A A35U A64G yielded a self-cleavage of 0.15.
Work on A20G U43A A56G yielded a self-cleavage of 0.93.
For A20G U43A A56U, the self-cleavage was 0.34.
In the case of A20G U74C A75G, the self-cleavage is reported as 1.12.
A20G U49A U69A gave a self-cleavage of 0.26.
For A20G U26A U41C, the self-cleavage was 0.44.
A20U A28C U41A A45C A64G U80C showed a self-cleavage of 0.05.
Work on A20G U51C U60C yielded a self-cleavage of 0.29.
For A20G U26C C37U U58C A64G U69C U72C, the self-cleavage was 0.09.
Variant A20U A21G A28U U41C U72C has a self-cleavage of 0.2.
A20G U31C G36A G42A A45U showed a self-cleavage of 0.17.
Work on A20G U49A U58C yielded a self-cleavage of 0.13.
For A20G U26A A64G, the self-cleavage was 0.38.
With A20G U25C C40U A47G the self-cleavage was 0.5.
In the case of A20G U26A A35G, the self-cleavage is reported as 1.21.
For A20U A21G U25C U41A G42C U66C U72G, the self-cleavage was 0.05.
A20G U26C G30A showed a self-cleavage of 0.27.
For A20G U31A C32U U48C A57G, the self-cleavage was 0.19.
In the case of A20G U41C U67C U69A, the self-cleavage is reported as 0.59.
A20G U54C G55U U60C U72C showed a self-cleavage of 0.12.
For A20G U31C U67A, the self-cleavage was 0.23.
Work on A20G U26A C38U U51C G55A U60A yielded a self-cleavage of 0.07.
A20G U31C U72C U78C showed a self-cleavage of 0.65.
A20G U43G U49A A57G C68U gave a self-cleavage of 0.17.
In the case of A20G U31C A35G G63C, the self-cleavage is reported as 0.87.
A20G U60A G61U showed a self-cleavage of 0.04.
A20G U54A A64G A65G showed a self-cleavage of 0.16.
A20G U72C U80C gave a self-cleavage of 1.14.
A20G U26A A47U A56G showed a self-cleavage of 0.07.
With A20G U58C G63A the self-cleavage was 0.31.
A20G U25C U51A A64G A65G gave a self-cleavage of 0.34.
In the case of A20G U25C A64G, the self-cleavage is reported as 0.29.
A20G U26A U43C A64G A65G U72C gave a self-cleavage of 0.25.
A20G U25G A47G U48C U69C showed a self-cleavage of 0.06.
For A20U A21G C29U U43C U49C A64G U78C, the self-cleavage was 0.1.
A20G U51A U60A showed a self-cleavage of 0.25.
Work on A20G U25C U41C U49C A56U U67C yielded a self-cleavage of 0.04.
A20G U31A A35U U58C showed a self-cleavage of 0.29.
A20G U41A U60A U76A showed a self-cleavage of 0.
In the case of A20G U51A U60G U78C, the self-cleavage is reported as 0.35.
In the case of A20G U51G U60C, the self-cleavage is reported as 0.3.
With A20G U31G U43C A45U the self-cleavage was 0.19.
Variant A20G U41A U66A has a self-cleavage of 0.19.
For A20G U43A A64G, the self-cleavage was 0.34.
Work on A20U A28C A47G U76C yielded a self-cleavage of 0.27.
With A20G U43C U69C A77U the self-cleavage was 0.2.
A20G U54C A64U U67C A75C showed a self-cleavage of 0.22.
A20G U41A U72A showed a self-cleavage of 0.25.
In the case of A20G U26C A28G C38A A45U G63A, the self-cleavage is reported as 0.35.
With A20G U25C U41C A45C U49C U51A C62A the self-cleavage was 0.
In the case of A20G U25C U60A, the self-cleavage is reported as 0.12.
Work on A20G U41A A65U yielded a self-cleavage of 0.15.
With A20G U41C A45G A65G U80C the self-cleavage was 0.22.
In the case of A20G U48A U66C U69C C71G, the self-cleavage is reported as 0.07.
A20G U43C U58C showed a self-cleavage of 0.12.
Work on A20G U41C U51C U80C yielded a self-cleavage of 0.85.
A20G U49C A56G showed a self-cleavage of 0.61.
For A20G U67C U78G, the self-cleavage was 0.81.
In the case of A20G U41C U43G A47U, the self-cleavage is reported as 0.19.
For A20G U31C U41A U60C, the self-cleavage was 0.37.
A20G U43A U54C gave a self-cleavage of 0.59.
For A20G U26A U41C A45U, the self-cleavage was 0.12.
A20U A21G G61A showed a self-cleavage of 0.16.
A20G U31C G46U A57G U69A showed a self-cleavage of 0.27.
Variant A20G U60G U80C has a self-cleavage of 0.62.
Work on A20G U26A A28G U43C U72C U78C yielded a self-cleavage of 0.16.
A20G U26C U41A U54G U78C showed a self-cleavage of 0.1.
In the case of A20G U54A U60A G63A U66C, the self-cleavage is reported as 0.31.
Variant A20G U31A U78C has a self-cleavage of 0.38.
For A20G U49A A64G U69A, the self-cleavage was 0.29.
Work on A20U A28G U43C U60C yielded a self-cleavage of 0.06.
With A20G U41C U51A U58A U67A the self-cleavage was 0.32.
In the case of A20G U25C U72C U80A, the self-cleavage is reported as 0.11.
In the case of A20G U43C U51C A57G, the self-cleavage is reported as 0.37.
With A20G U26A U31C U60C G73U the self-cleavage was 0.09.
Variant A20G U51A C68U U72A U74C has a self-cleavage of 0.63.
A20G U43A U54C A56G U76A gave a self-cleavage of 0.87.
With A20G U25C C32A U54A C59U U60A A64G the self-cleavage was 0.06.
A20G U26C U49C showed a self-cleavage of 0.3.
Work on A20G U25C U26A A28C A75G yielded a self-cleavage of 0.08.
For A20G U31C U41C U43A U51C U60A U80C, the self-cleavage was 0.12.
Work on A20G U43C U67C yielded a self-cleavage of 0.72.
Variant A20G U25C G30A has a self-cleavage of 0.08.
Work on A20G U26C C39A A45G U60C C62G U69C yielded a self-cleavage of 0.04.
A20G U67A U72C showed a self-cleavage of 0.58.
For A20G U41C C81U, the self-cleavage was 1.1.
Work on A20G U41C C81A yielded a self-cleavage of 1.09.
For A20G U31C G33A U48A, the self-cleavage was 0.18.
Variant A20U A28G U41A has a self-cleavage of 0.06.
For A20G U54C U76C, the self-cleavage was 0.99.
For A20G U54C U76A, the self-cleavage was 0.91.
Work on A20G U74C U76A yielded a self-cleavage of 1.18.
With A20G U49A U54C A64G A75U the self-cleavage was 0.58.
Work on A20G U26A U31C G33A U54G A57U yielded a self-cleavage of 0.06.
With A20G U26C G63A A64G U72C the self-cleavage was 0.07.
For A20G U26C A35U A47G A56G U76C, the self-cleavage was 0.23.
In the case of A20G U31C U54C A64G U66C, the self-cleavage is reported as 0.14.
A20G U31A U66C U72C showed a self-cleavage of 0.09.
A20G U25C U72A U76C showed a self-cleavage of 0.27.
For A20G U26C C27A A35U, the self-cleavage was 0.3.
Variant A20G U41A U67C U78C has a self-cleavage of 0.14.
In the case of A20G U26A C27G U41C U60G, the self-cleavage is reported as 0.14.
A20U A21G U26C U78C gave a self-cleavage of 0.17.
In the case of A20U A28G U31A A57G A65G U72C, the self-cleavage is reported as 0.06.
Work on A20G U31C U41A A45U U54G yielded a self-cleavage of 0.07.
A20G U51C A65G gave a self-cleavage of 0.44.
Variant A20G U26C U51C A64U has a self-cleavage of 0.08.
For A20G U26C A28G U43G A57G A64U, the self-cleavage was 0.06.
For A20G U31C A35U, the self-cleavage was 0.2.
For A20G U26C A57G U67C C71G A75G, the self-cleavage was 0.07.
With A20G U31C U54C U78A the self-cleavage was 0.57.
In the case of A20G U31C U80A, the self-cleavage is reported as 0.83.
A20G U31C U54C U67C gave a self-cleavage of 0.51.
A20G U26C U67A showed a self-cleavage of 0.34.
In the case of A20G U43C G63U, the self-cleavage is reported as 0.24.
Variant A20G U31A U60A has a self-cleavage of 0.09.
With A20G U31A U72C U80C the self-cleavage was 0.39.
In the case of A20G U41C U43C A75G, the self-cleavage is reported as 0.41.
In the case of A20U A21U A47G U80A, the self-cleavage is reported as 0.14.
Variant A20G U41C U43A A45U U80C has a self-cleavage of 0.32.
In the case of A20G U58G G63A G70U U72C A77U U80C, the self-cleavage is reported as 0.13.
A20G U43A U54A U60A A77U showed a self-cleavage of 0.26.
With A20U A21G U67C U78A the self-cleavage was 0.05.
Variant A20G U41A U48A U76A has a self-cleavage of 0.05.
With A20G U31C U54A A56U G61C U69A U72C the self-cleavage was 0.09.
A20G U31C A45G U54A showed a self-cleavage of 0.42.
For A20G U26A U54C, the self-cleavage was 0.66.
In the case of A20G U31C U54C U58A, the self-cleavage is reported as 0.1.
With A20G U31C U54A U80A the self-cleavage was 0.51.
Work on A20G U31C C37A C40U A45G yielded a self-cleavage of 0.06.
With A20G U26C U72A the self-cleavage was 0.27.
A20G U26C U72G gave a self-cleavage of 0.21.
For A20G U60A U69A, the self-cleavage was 0.34.
For A20U A28G G46U A64U, the self-cleavage was 0.09.
